Among all 410,000 compounds or so, about 5,000 (1.2%) were called active. This list was built around the results that the source calls inconclusive (neither active nor inactive); the mix of calls is not that of the screen. Calls come from the whole dose curve; as a rule, active = well fitted inhibition curve with a large enough effect; inconclusive = small, poorly fitted or top-dose-only effect; inactive = no such curve, though single readings can be large or run the other way. Potencies beside an inconclusive call are fits to weak or partial responses and may not hold up.
Test: qHTS for Inhibitors of TGF-b; note: nearly all actives have a fitted effect of over 65% in size
Details: HepG2 CAGA-GFP TGF-b/SMAD3 reporter, GFP fluorescence, 18 h, TGF-beta stimulated, 500 pg/mL final; series mostly up to 46.1 µM
How it was run: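 Using HEPG2 CAGA-GFP reporter cells at 1000 cells/well, we pinned test compounds, stimulated with recombinant TGF-beta (500 pg/mL final) and measured total well GFP after 18 h.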
Potency is the fitted concentration of half-maximal effect; tags give direction and shape of the fitted curve.

Row | Compound | Potency
1 | COc1ccc(/C=C\c2onc(C)c2S(=O)(=O)N2CCC(C(=O)Nc3cccc(OC)c3)CC2)cc1 | inconclusive: 7.08 µM [inhibitor, partial curve, poor fit]
2 | Cc1ccc(Cc2c(-c3ccc(F)cc3)nc3ccc(Br)cn23)cc1 | inconclusive: 22.4 µM [inhibitor, single point]
3 | CCOC(=O)c1c(C)[nH]c(C)c1S(=O)(=O)N(C)CC(=O)Nc1ccc(CC)cc1 | inconclusive: 20 µM [inhibitor, single point]
4 | O=C(CN(C(=O)c1ccccc1)C(=O)c1ccccc1)OCc1ccccc1 | inactive
5 | Cc1ccc(S(=O)(=O)Nc2ccc3nc(-c4ccc(F)cc4)oc3c2)cc1 | inconclusive: 11.2 µM [inhibitor, single point]
6 | Cc1nc(-c2cccc(NC(=O)c3cccs3)c2)cs1 | inactive
7 | Cc1ccc(NC(=S)NC(NC(=O)c2ccccc2C)C(Cl)(Cl)Cl)c(C)c1 (stereo not given) | active: 22.4 µM
8 | COc1cc2c(NC3CCN(C)CC3)nc(N3CCCN(C)CC3)nc2cc1OCCCCN | inconclusive: 11.2 µM [inhibitor, single point]
9 | CCn1ncc(C2=NOC(C(=O)NCC(C)C)C2)c1C (stereo not given) | inactive
10 | Nc1ccc(C(=O)N2N=C(c3ccc(F)cc3)CC2(O)C(F)(F)F)cc1 (stereo not given) | inconclusive: 20 µM [inhibitor, single point]
11 | COc1ccc2c(c1)[C@@H]1[C@H](CO2)[C@H](c2ccccc2)[C@]2(C)C(=O)Nc3ccc(C)cc3C(=O)N12 | inconclusive: 35.5 µM [inhibitor, single point]
12 | CCCSc1ncc(Cl)c(C(=O)Nc2sc3c(c2C(=O)OC)CCCC3)n1 | inactive
13 | Cn1c(C(=O)NCCN2CCN(c3ccccc3F)CC2)cc2c(=O)n(C)c3ccccc3c21 | inactive
14 | N#Cc1c(-n2ncnc2-c2ccc(F)cc2)sc2c1CCCCC2 | inactive
15 | O=C(Nc1ccccc1Cl)c1ccc([N+](=O)[O-])o1 | inconclusive: 35.5 µM [inhibitor, single point]
16 | COc1cccc(NC(=S)N2CCN(Cc3ccccc3)CC2)c1 | inactive
17 | O=C(/C=C/c1ccccc1)c1ccccc1O | inconclusive: 22.4 µM [inhibitor, single point]
18 | CC(C)[C@H](NS(=O)(=O)c1ccccc1F)C(=O)NC1CCCCC1 | inactive
19 | CCC(=O)Nc1nn(CC(C)C)c2nc3ccc(C)cc3cc12 | inactive
20 | Cc1ccc(NC(=O)Cn2cc(S(=O)(=O)Cc3ccc(F)cc3)c3ccccc32)cc1Cl | inconclusive: 3.16 µM [inhibitor, single point]
21 | O=C1c2cccc(OCC(=O)N3CCCc4ccccc43)c2CCN1Cc1cccnc1 | inconclusive: 4.47 µM [inhibitor, partial curve, poor fit]
22 | O=C(CSc1nc(-c2ccccc2)cc(=O)[nH]1)N1CCc2ccccc21 | inactive
23 | c1ccc(-c2nc(NCCCn3ccnc3)c3oc4ccccc4c3n2)cc1 | inconclusive: 35.5 µM [inhibitor, single point]

Row | Compound | Potency
24 | CCOC(=O)c1ccccc1NC(=O)Cn1c(=O)n(Cc2nc(C)no2)c(=O)c2ccccc21 | inactive
25 | Cc1ccc(S(=O)(=O)N2CCN(C(=O)N3CCCCC3)CC2)c(C)c1 | inconclusive: 14.1 µM [inhibitor, single point]
26 | Cc1ccc(S(=O)(=O)N2[C@@H](c3ccc(Br)cc3)C(C(=O)O)=CC[C@H]2c2ccc(Cl)cc2)cc1 | inconclusive: 25.1 µM [inhibitor, single point]
27 | CCOc1cc(C2C3=C(CCCC3=O)NC3=C2C(=O)CCC3)ccc1OCCO | inconclusive: 35.5 µM [inhibitor, partial curve, poor fit]
28 | Cc1cccc(NC(=O)C2CCN(c3nnc(C)c4c(C)n(-c5ccccc5)nc34)CC2)c1C | inactive
29 | CCS(=O)(=O)c1ncc(Cl)c(C(=O)NCc2ccc(OC)cc2)n1 | active: 3.16 µM
30 | CCc1nn(CC(=O)Nc2cccc(C(C)=O)c2)c(=O)c2cc3sccc3n12 | inactive
31 | CC(C)(C)OC(=O)CNC(=O)c1[nH]cnc1C(=O)N[C@@H](Cc1ccccc1)C(=O)OC(C)(C)C | inconclusive: 25.1 µM [inhibitor, single point]
32 | COC(=O)Cc1cc(=O)n2[nH]c(C)c(-c3ccccc3)c2n1 | inactive
33 | CC1CCCC(C)N1C(=O)CN1CCN(c2nc(-c3ccc(F)cc3)cs2)CC1 (stereo not given) | inconclusive: 12.6 µM [inhibitor, single point]
34 | C(=N\Nc1nc2ccccc2[nH]1)/c1c[nH]c2ccccc12 | inconclusive: 35.5 µM [inhibitor, single point]
35 | Cc1ccccc1C(=O)NC(=S)NCCC1=CCCCC1 | inconclusive: 35.5 µM [inhibitor, single point]
36 | Cc1cc(C)c2c(CC(=O)Nc3ccccc3C(F)(F)F)coc2c1 | inactive
37 | COc1ccccc1N1CCN(C(=O)C2CCC(Cn3c(=S)[nH]c4ccccc4c3=O)CC2)CC1 (stereo not given) | inconclusive: 20 µM [inhibitor, single point]
38 | CSc1ccc(CCNC(=O)c2ccc3c(Cl)c4c(nc3c2)CCCC4)cc1 | inconclusive: 6.31 µM [inhibitor, full curve]
39 | COc1ccc(OC(C)C(=O)NC2CCCCCCC2)cc1 (stereo not given) | inactive
40 | COc1ccnc(Oc2ccc(F)cc2)c1C(=O)N/C=N/OCc1ccc(Cl)cc1Cl | inconclusive: 35.5 µM [inhibitor, single point]
41 | CCOC(=O)N1CCN(Cc2ccc(O)c3ncccc23)CC1 | active: 7.08 µM
42 | O=C(Nc1cccnc1)c1ccc(Cl)c(S(=O)(=O)N2CCCCCC2)c1 | inconclusive: 7.08 µM [inhibitor, partial curve, poor fit]
43 | O=c1[nH]c(C2CCN(S(=O)(=O)c3ccc(F)cc3)CC2)nc2c1nnn2Cc1ccc2c(c1)OCCO2 | active: 15.8 µM
44 | CCc1nn(C(C)C(=O)N2CCN(c3ccccc3)CC2)c(=O)c2cc3occc3n12 (stereo not given) | inconclusive: 14.1 µM [inhibitor, single point]
45 | CC1CCc2c(sc(NC(=O)c3c([N+](=O)[O-])cnn3C)c2C(N)=O)C1 (stereo not given) | inactive

— PubChem BioAssay AID588855 (National Center for Advancing Translational Sciences (NCATS), 2011)
